{
  "source": "the supplement of paper PMC8728848",
  "binders": {"B1": {"name": "GS7807H-bfa-490-18-490 (Bacteroides fragilis) (protein)", "chain": "GNLEEMNIDPDNATQTHPKLLLTQICMNAFKRGTDGMYATKKVIQADGESADQYYKWTRGSFGYYDNLRNVQKMGEEAERVNAPVYTALTKFFRAYYFYELTLRFGDIPYSQALKGEKEEIYTPEYDAQEDVFAGILQELREADEILANDASVIDGDIIYNGNSTQWRKLINSFRLKVLMTLSNHTTVGNINIASEFKNIATNSPLMNSLADNGQLVYLDQQGNRYPQFNAQWSGYYMDDTFIQRMRERRDPRLFIFSAQTNKGKTEGKPIDDFSSYEGGDPAAPYSDAIIKVSEGTISPINDRFRTDPIVEPTMLMGYAELQQILAEAVVRGWISGNAQTYYEKGIRASFSFYETHAKDYAGYLNENAVAQYLKEPLVDFTQASGTEEQIERIIMQKYLVTFYQGNWDSFYEQLRTGYPDFRRPAGTEIPKRWMYPQGEYDNNGTNVETAITRQFGAGNDKINQATWWQKKS"}},
  "test_in_all_cases": "glycan array binding signal (z-score within array); higher = stronger binding",
  "conditions_in_all_cases": "glycan notation: IUPAC condensed, linker removed",
  "key": {"Gal6S(b1-4)Glc6S": {"molecular_target": "Gal6S(b1-4)Glc6S", "procedure,_shortened": "(§1)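 From the Consortium for Functional Glycomics database, 3228 arrays were curated, keeping only those whose protein sequence was available. Binding is given as a within-array Z-score averaged across arrays sharing a protein sequence and across linkers. Negative Z-scores can be read as non-binding.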"}, "Gal6S(b1-4)GlcNAc": {"molecular_target": "Gal6S(b1-4)GlcNAc", "procedure,_shortened": "as §1"}, "Gal6S(b1-4)GlcNAc6S": {"molecular_target": "Gal6S(b1-4)GlcNAc6S", "procedure,_shortened": "as §1"}, "GalNAc(a1-3)Gal": {"molecular_target": "GalNAc(a1-3)Gal", "procedure,_shortened": "as §1"}, "GalNAc(a1-3)GalNAc": {"molecular_target": "GalNAc(a1-3)GalNAc", "procedure,_shortened": "as §1"}, "[1]": {"molecular_target": "GalNAc(a1-3)GalNAc(b1-3)Gal(a1-4)Gal(b1-4)Glc", "procedure,_shortened": "as §1"}, "[2]": {"molecular_target": "GalNAc(a1-3)GalNAc(b1-3)Gal(a1-4)Gal(b1-4)GlcNAc", "procedure,_shortened": "as §1"}, "GalNAc(b1-3)Gal": {"molecular_target": "GalNAc(b1-3)Gal", "procedure,_shortened": "as §1"}, "[3]": {"molecular_target": "GalNAc(b1-3)Gal(a1-4)Gal(b1-4)GlcNAc", "procedure,_shortened": "as §1"}, "[4]": {"molecular_target": "GalNAc(b1-3)Gal(a1-4)Gal(b1-4)GlcNAc(b1-3)Gal(b1-4)Glc", "procedure,_shortened": "as §1"}, "[5]": {"molecular_target": "GalNAc(b1-3)Gal(a1-6)Gal(b1-4)Glc", "procedure,_shortened": "as §1"}, "GalNAc(b1-3)GalNAc": {"molecular_target": "GalNAc(b1-3)GalNAc", "procedure,_shortened": "as §1"}, "GalNAc(b1-3)GlcNAc": {"molecular_target": "GalNAc(b1-3)GlcNAc", "procedure,_shortened": "as §1"}, "GalNAc(b1-4)Gal(b1-4)Glc": {"molecular_target": "GalNAc(b1-4)Gal(b1-4)Glc", "procedure,_shortened": "as §1"}, "GalNAc(b1-4)GlcNAc": {"molecular_target": "GalNAc(b1-4)GlcNAc", "procedure,_shortened": "as §1"}, "[6]": {"molecular_target": "GalNAc(b1-4)GlcNAc(b1-2)Man", "procedure,_shortened": "as §1"}, "[7]": {"molecular_target": "GalNAc(b1-4)GlcNAc(b1-2)Man(a1-3)[GalNAc(b1-4)GlcNAc(b1-2)Man(a1-6)]Man(b1-4)GlcNAc(b1-4)GlcNAc", "procedure,_shortened": "as §1"}, "[8]": {"molecular_target": "GalNAc(b1-4)GlcNAc(b1-3)GalNAc(b1-4)GlcNAc", "procedure,_shortened": "as §1"}, "GalNAc(b1-4)GlcNAc6S": {"molecular_target": "GalNAc(b1-4)GlcNAc6S", "procedure,_shortened": "as §1"}, "GalNAc(b1-6)GalNAc": {"molecular_target": "GalNAc(b1-6)GalNAc", "procedure,_shortened": "as §1"}, "GalNAc3S(b1-4)GlcNAc": {"molecular_target": "GalNAc3S(b1-4)GlcNAc", "procedure,_shortened": "as §1"}, "GalNAc3S(b1-4)GlcNAc3S": {"molecular_target": "GalNAc3S(b1-4)GlcNAc3S", "procedure,_shortened": "as §1"}, "[9]": {"molecular_target": "GalNAc3S(b1-4)[Fuc(a1-3)]GlcNAc", "procedure,_shortened": "as §1"}, "GalNAc4S6S(b1-4)GlcNAc": {"molecular_target": "GalNAc4S6S(b1-4)GlcNAc", "procedure,_shortened": "as §1"}, "GalNAc6S(b1-4)GlcNAc": {"molecular_target": "GalNAc6S(b1-4)GlcNAc", "procedure,_shortened": "as §1"}, "Glc(a1-4)Glc": {"molecular_target": "Glc(a1-4)Glc", "procedure,_shortened": "as §1"}, "[10]": {"molecular_target": "Glc(a1-4)Glc(a1-4)Glc(a1-4)Glc", "procedure,_shortened": "as §1"}, "Glc(a1-6)Glc(a1-6)Glc": {"molecular_target": "Glc(a1-6)Glc(a1-6)Glc", "procedure,_shortened": "as §1"}, "[11]": {"molecular_target": "Glc(a1-6)Glc(a1-6)Glc(a1-6)Glc", "procedure,_shortened": "as §1"}, "Glc(b1-4)Glc": {"molecular_target": "Glc(b1-4)Glc", "procedure,_shortened": "as §1"}, "Glc(b1-6)Glc": {"molecular_target": "Glc(b1-6)Glc", "procedure,_shortened": "as §1"}, "GlcA(b1-3)Gal": {"molecular_target": "GlcA(b1-3)Gal", "procedure,_shortened": "as §1"}, "GlcA(b1-3)GlcNAc": {"molecular_target": "GlcA(b1-3)GlcNAc", "procedure,_shortened": "as §1"}, "GlcA(b1-6)Gal": {"molecular_target": "GlcA(b1-6)Gal", "procedure,_shortened": "as §1"}, "[12]": {"molecular_target": "GlcA3S(b1-3)Gal(b1-4)GlcNAc(b1-2)Man", "procedure,_shortened": "as §1"}, "[13]": {"molecular_target": "GlcA3S(b1-3)Gal(b1-4)GlcNAc(b1-3)Gal(b1-4)Glc", "procedure,_shortened": "as §1"}, "[14]": {"molecular_target": "GlcNAc(a1-3)Gal(b1-4)GlcNAc", "procedure,_shortened": "as §1"}},
  "note": "This is one part of the list.",
  "data": [
    {"binder": "B1", "values": [
      {"measurement": "glycan array binding signal (z-score)", "setting": "Gal6S(b1-4)Glc6S", "value": 0.705},
      {"measurement": "glycan array binding signal (z-score)", "setting": "Gal6S(b1-4)GlcNAc", "value": -0.439},
      {"measurement": "glycan array binding signal (z-score)", "setting": "Gal6S(b1-4)GlcNAc6S", "value": -0.175},
      {"measurement": "glycan array binding signal (z-score)", "setting": "GalNAc(a1-3)Gal", "value": 0.174},
      {"measurement": "glycan array binding signal (z-score)", "setting": "GalNAc(a1-3)GalNAc", "value": -0.459},
      {"measurement": "glycan array binding signal (z-score)", "setting": "[1]", "value": -0.749},
      {"measurement": "glycan array binding signal (z-score)", "setting": "[2]", "value": 0.125},
      {"measurement": "glycan array binding signal (z-score)", "setting": "GalNAc(b1-3)Gal", "value": -0.859},
      {"measurement": "glycan array binding signal (z-score)", "setting": "[3]", "value": -0.073},
      {"measurement": "glycan array binding signal (z-score)", "setting": "[4]", "value": -0.443},
      {"measurement": "glycan array binding signal (z-score)", "setting": "[5]", "value": 0.474},
      {"measurement": "glycan array binding signal (z-score)", "setting": "GalNAc(b1-3)GalNAc", "value": -0.343},
      {"measurement": "glycan array binding signal (z-score)", "setting": "GalNAc(b1-3)GlcNAc", "value": -0.382},
      {"measurement": "glycan array binding signal (z-score)", "setting": "GalNAc(b1-4)Gal(b1-4)Glc", "value": -0.429},
      {"measurement": "glycan array binding signal (z-score)", "setting": "GalNAc(b1-4)GlcNAc", "value": 0.462},
      {"measurement": "glycan array binding signal (z-score)", "setting": "[6]", "value": 0.981},
      {"measurement": "glycan array binding signal (z-score)", "setting": "[7]", "value": 0.567},
      {"measurement": "glycan array binding signal (z-score)", "setting": "[8]", "value": 0.024},
      {"measurement": "glycan array binding signal (z-score)", "setting": "GalNAc(b1-4)GlcNAc6S", "value": 0},
      {"measurement": "glycan array binding signal (z-score)", "setting": "GalNAc(b1-6)GalNAc", "value": -0.487},
      {"measurement": "glycan array binding signal (z-score)", "setting": "GalNAc3S(b1-4)GlcNAc", "value": -0.743},
      {"measurement": "glycan array binding signal (z-score)", "setting": "GalNAc3S(b1-4)GlcNAc3S", "value": 0.108},
      {"measurement": "glycan array binding signal (z-score)", "setting": "[9]", "value": -0.121},
      {"measurement": "glycan array binding signal (z-score)", "setting": "GalNAc4S6S(b1-4)GlcNAc", "value": -0.764},
      {"measurement": "glycan array binding signal (z-score)", "setting": "GalNAc6S(b1-4)GlcNAc", "value": -0.297},
      {"measurement": "glycan array binding signal (z-score)", "setting": "Glc(a1-4)Glc", "value": -0.557},
      {"measurement": "glycan array binding signal (z-score)", "setting": "[10]", "value": -0.444},
      {"measurement": "glycan array binding signal (z-score)", "setting": "Glc(a1-6)Glc(a1-6)Glc", "value": -0.393},
      {"measurement": "glycan array binding signal (z-score)", "setting": "[11]", "value": -0.389},
      {"measurement": "glycan array binding signal (z-score)", "setting": "Glc(b1-4)Glc", "value": -0.663},
      {"measurement": "glycan array binding signal (z-score)", "setting": "Glc(b1-6)Glc", "value": 0.397},
      {"measurement": "glycan array binding signal (z-score)", "setting": "GlcA(b1-3)Gal", "value": -0.27},
      {"measurement": "glycan array binding signal (z-score)", "setting": "GlcA(b1-3)GlcNAc", "value": -0.185},
      {"measurement": "glycan array binding signal (z-score)", "setting": "GlcA(b1-6)Gal", "value": 0.638},
      {"measurement": "glycan array binding signal (z-score)", "setting": "[12]", "value": -0.164},
      {"measurement": "glycan array binding signal (z-score)", "setting": "[13]", "value": -0.554},
      {"measurement": "glycan array binding signal (z-score)", "setting": "[14]", "value": -0.677}
    ]}
  ]
}
